# Data published in the supplement of paper PMC9446081.
# Screen size: about 39,000 compounds; about 220 (0.56%) showed activity. This is one part of the list.
# System: Escherichia coli K-12 BW25113
# Assay: relative growth (OD600 normalised to plate interquartile mean) (fraction); higher = less growth inhibition, active = 0.2 or less
# Conditions: 50 µM; LB; incubation time: overnight (16-24 h)
# 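Note: static incubation at 37 °C against the wild-type strain, values averaged over two biological replicates.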
row,SMILES,relative growth
1,Cc1ccc(S(=O)(=O)N(C)C[C@H]2OCCCC[C@H](C)Oc3ccc(NC(=O)c4ccccc4)cc3C(=O)N([C@H](C)CO)C[C@@H]2C)cc1,inactive: 1.03
2,C[C@@H]1CCCCO[C@@H](CN(C)C(=O)CCCN(C)C)[C@@H](C)CN([C@H](C)CO)C(=O)c2cc(NC(=O)Nc3ccc(C(F)(F)F)cc3)ccc2O1,inactive: 1.04
3,COc1ccc(C(C)C(=O)c2ccc(O)cc2O)cc1 (stereo not given),inactive: 0.856
4,C[C@H]1CN([C@@H](C)CO)C(=O)Cc2cc(NC(=O)Nc3ccccc3)ccc2O[C@@H]1CN(C)S(=O)(=O)c1cn(C)cn1,inactive: 0.946
5,C[C@H](CO)N1C[C@H](C)[C@@H](CN(C)S(=O)(=O)c2cccs2)Oc2ccc(NS(=O)(=O)c3ccccc3)cc2CC1=O,inactive: 0.976
6,C[C@H](CO)N1C[C@H](C)[C@@H](CN(C)S(C)(=O)=O)Oc2ccc(N(C)C)cc2C1=O,inactive: 0.9
7,COc1ccc(CNC(=O)N(C)C[C@@H]2OCc3ccccc3-c3c(n(C)c4ccccc34)C(=O)N([C@@H](C)CO)C[C@@H]2C)cc1,inactive: 0.989
8,COc1ccc(NC(=O)N(C)C[C@@H]2OCCCC[C@@H](C)Oc3ccc(NC(=O)Nc4ccc5c(c4)OCO5)cc3C(=O)N([C@H](C)CO)C[C@H]2C)cc1,inactive: 1.02
9,CCCC(=O)Nc1ccc2c(c1)C(=O)N(C)C[C@H](OC)[C@@H](C)CN(Cc1ccc(-c3ccccn3)cc1)[C@H](C)CO2,inactive: 1.05
10,Cc1noc(C)c1S(=O)(=O)N(C)C[C@H]1Oc2ccc(NC(=O)NC3CCCCC3)cc2CC(=O)N([C@H](C)CO)C[C@H]1C,inactive: 0.991
11,NCC(O)c1ccc(O)c(O)c1.O=C(O)C(O)C(O)C(=O)O (stereo not given),inactive: 1.12
12,COc1ccc(S(=O)(=O)N(C)C[C@@H]2OCCCC[C@@H](C)Oc3ccc(NC(=O)Nc4c(C)noc4C)cc3C(=O)N([C@H](C)CO)C[C@@H]2C)cc1,inactive: 0.992
13,C[C@@H]1CCCCO[C@@H](CN(C)C(=O)Nc2ccccc2)[C@H](C)CN([C@H](C)CO)C(=O)c2cc(NC(=O)c3ccncc3)ccc2O1,inactive: 0.966
14,C[C@@H]1CCCCO[C@@H](CN(C)Cc2ccc(C(F)(F)F)cc2)[C@H](C)CN([C@@H](C)CO)C(=O)c2cc(NS(C)(=O)=O)ccc2O1,inactive: 0.968
15,CC(C)C[C@H](NP(=O)(O)O[C@H]1O[C@@H](C)[C@@H](O)[C@@H](O)[C@@H]1O)C(=O)N[C@H](Cc1c[nH]c2ccccc12)C(=O)O,inactive: 0.974
16,C[C@@H]1CCCCO[C@@H](CN(C)Cc2ccc(Cl)c(Cl)c2)[C@H](C)CN([C@@H](C)CO)C(=O)c2cc(NC(=O)C3CCCCC3)ccc2O1,inactive: 0.996
17,CN(C)C1CN(S(=O)(=O)CCC2CC2)C1,inactive: 0.916
18,Cc1ccc(S(=O)(=O)N(C)C[C@@H]2Oc3ccc(NS(=O)(=O)c4cccs4)cc3CC(=O)N([C@@H](C)CO)C[C@H]2C)cc1,inactive: 0.997
19,COCN(C#N)c1nc(N(C)C)nc(N(C)C)n1,inactive: 1
20,COC(=O)C[C@@H]1CC[C@@H]2[C@H](COC[C@H](O)CN2S(=O)(=O)c2ccc(F)cc2)O1,inactive: 0.995

row,SMILES,relative growth
1,Cc1noc(C)c1NC(=O)N(C)C[C@@H]1Oc2ncc(C#CCC(C)C)cc2C(=O)N([C@H](C)CO)C[C@H]1C,inactive: 1
2,Cn1ncc2c(N3CCCC3)ncnc21,inactive: 1.02
3,Clc1ccc(C2=Nc3cccc4cccc(c34)N2)cc1,inactive: 0.974
4,COc1ccc([Si](C)(C)[C@@H]2[C@@H](CCO)O[C@]3(C(=O)N(Cc4cccc(N5CCCCC5=O)c4)c4ccccc43)[C@H]2C)cc1,inactive: 1.05
5,C[C@H](CO)N1C[C@H](C)[C@@H](CN(C)S(=O)(=O)c2cn(C)cn2)Oc2c(NC(=O)c3cnccn3)cccc2C1=O,inactive: 1.01
6,C[C@H]1CCCCO[C@H](CN(C)C(=O)NC2CCCCC2)[C@@H](C)CN([C@@H](C)CO)C(=O)c2cc(NC(=O)c3ccccc3)ccc2O1,inactive: 0.966
7,C[C@@H]1CN([C@@H](C)CO)C(=O)Cc2cc(NC(=O)c3ccncc3)ccc2O[C@@H]1CN(C)C(=O)Nc1ccc2c(c1)OCO2,inactive: 0.95
8,CS(=O)(=O)Nc1ccc2c(c1)[C@@H]1C[C@@H](CC(=O)NCc3ccc(-c4ccccc4)cc3)O[C@H](CO)[C@@H]1O2,inactive: 0.989
9,CCC[C@@H](O)C#Cc1cnc2c(c1)C(=O)N([C@H](C)CO)C[C@H](C)[C@H](CN(C)S(=O)(=O)c1ccc(C)cc1)O2,inactive: 1.04
10,COc1ccc(NC(=O)Nc2ccc3c(c2)C(=O)N([C@H](C)CO)C[C@@H](C)[C@@H](CN(C)S(C)(=O)=O)O3)cc1,inactive: 0.935
11,NC[C@@H]1O[C@H](O[C@H]2[C@@H](O)[C@H](O[C@@H]3[C@@H](O)[C@H](N)C[C@H](N)[C@H]3O[C@@H]3O[C@H](CO)[C@@H](O)C[C@H]3N)O[C@@H]2CO)[C@H](N)[C@@H](O)[C@@H]1O[C@H]1O[C@H](CO)[C@@H](O)[C@H](O)[C@@H]1O,inactive: 1.01
12,O=C(C[C@H]1CC[C@@H]2[C@H](COC[C@H](O)CN2C(=O)Nc2cccc(F)c2)O1)NCc1ccccc1Cl,inactive: 1
13,C[C@H](CO)N1C[C@H](C)[C@@H](CN(C)C(=O)C2CCCCC2)OCCCC[C@H](C)Oc2ccc(NC(=O)c3ccncc3)cc2C1=O,inactive: 1
14,CN1CCCC1c1cccnc1.O=C(O)C(O)C(O)C(=O)O.O=C(O)C(O)C(O)C(=O)O (stereo not given),inactive: 1.14
15,C[C@]1(C(=O)NCCN2CCOCC2)c2ccccc2C(=O)N(Cc2cc(C(F)(F)F)cc(C(F)(F)F)c2)[C@H]1c1ccc(CO)cc1,inactive: 0.982
16,C[C@@H]1CN([C@H](C)CO)C(=O)Cc2cc(NS(=O)(=O)c3cccs3)ccc2O[C@@H]1CN(C)CC1CC1,inactive: 0.995
17,C[C@@H]1CCCCO[C@@H](CN(C)Cc2ccccc2)[C@H](C)CN([C@H](C)CO)C(=O)c2cc(NS(=O)(=O)c3ccccc3)ccc2O1,inactive: 1.02
18,O=C(C[C@H]1CC[C@@H]2[C@H](COC[C@@H](O)CN2C(=O)Nc2cc(Cl)cc(Cl)c2)O1)N1CCOCC1,inactive: 1.01
19,C[C@@H]1CN([C@@H](C)CO)C(=O)c2cc(NS(=O)(=O)c3ccc(F)cc3)ccc2O[C@@H]1CN(C)C(=O)Nc1ccc(C(F)(F)F)cc1,inactive: 0.996
20,CO[C@H]1CN(C)C(=O)c2ccc(NC(=O)Nc3cccc(F)c3)cc2OC[C@H](C)N(C(=O)Nc2c(C)noc2C)C[C@@H]1C,inactive: 0.984

row,SMILES,relative growth
1,O=C1C(=O)C(O)C(=O)C(=O)C1O (stereo not given),inactive: 1
2,CN(C)CCNc1ccc(CN)cc1,inactive: 1.01
3,C[C@@H]1CN([C@@H](C)CO)S(=O)(=O)c2ccc(-c3ccncc3)cc2O[C@H]1CN(C)C(=O)c1ccc2c(c1)OCO2,inactive: 1.01
4,C[C@H](CO)N1C[C@H](C)[C@H](CN(C)S(C)(=O)=O)Oc2c(NS(=O)(=O)c3ccccc3)cccc2C1=O,inactive: 0.985
5,COc1ccc([Si](C)(C)[C@@H]2[C@@H](CCO)O[C@]3(C(=O)N(Cc4ccc(N5C(=O)c6cccc7cccc5c67)cc4)c4ccccc43)[C@H]2C)cc1,inactive: 1.06
6,CN(C)CC#Cc1ccc([C@H]2[C@H](CO)N3C(=O)CN(C(=O)CN(C)C)C[C@@H]23)cc1,inactive: 1.02
7,COc1ccc(CCC(=O)c2c(O)cc(O[C@@H]3O[C@H](CO)[C@@H](O)[C@H](O)[C@H]3O[C@@H]3O[C@@H](C)[C@H](O)[C@@H](O)[C@H]3O)cc2O)cc1O,inactive: 1
8,C[C@@H]1CN([C@H](C)CO)C(=O)c2cc(NC(=O)Cc3cn(C)c4ccccc34)ccc2O[C@@H]1CN(C)Cc1ccc(Cl)c(Cl)c1,inactive: 1
9,C[C@@H]1CN([C@H](C)CO)C(=O)c2cc(NC(=O)CCN3CCOCC3)ccc2O[C@@H]1CN(C)S(=O)(=O)c1ccc(Cl)cc1,inactive: 1
10,CCOC(=O)c1n[nH]c(=S)[nH]c1=O,inactive: 1
11,CC=Cc1ccc2n(c1=O)C[C@@H]1[C@@H](CO)[C@H](C(=O)NCCCN3CCOCC3)[C@H]2N1Cc1cocn1,inactive: 1.01
12,Cc1ccc(S(=O)(=O)Nc2ccc3c(c2)C(=O)N([C@@H](C)CO)C[C@@H](C)[C@@H](CN(C)S(=O)(=O)c2ccc(F)cc2)O3)cc1,inactive: 1.01
13,Cc1cc(O)c2c(c1)C(=O)c1cc(O)cc(O)c1C2=O,inactive: 0.923
14,C[C@@H]1CN([C@H](C)CO)C(=O)Cc2cc(NS(=O)(=O)c3ccccc3)ccc2O[C@@H]1CN(C)S(=O)(=O)c1cccs1,inactive: 1.01
15,COc1ccc(S(=O)(=O)N(C)C[C@H]2Oc3ccc(NC(=O)NC(C)C)cc3CC(=O)N([C@@H](C)CO)C[C@H]2C)cc1,inactive: 1
16,C[C@H](CO)N1C[C@H](C)[C@H](CN(C)S(C)(=O)=O)Oc2ccc(NC(=O)CCCCCC(=O)Nc3ccccc3N)cc2CC1=O,inactive: 0.981
17,Cn1cc(N2C[C@]3(CCN(CCO)C3)CC2=O)cn1,inactive: 0.982
18,CN(C)C(=O)C[C@@H]1CC[C@@H](NC(=O)C2CCOCC2)[C@@H](CO)O1,inactive: 1.03
19,COc1ccc(NC(=O)N(C)C[C@H]2OCCCC[C@@H](C)Oc3ccc(NC(=O)Nc4ccc(C(F)(F)F)cc4)cc3C(=O)N([C@H](C)CO)C[C@H]2C)cc1,inactive: 1.04
20,COc1ccc(CN(C)C[C@@H]2OCCCC[C@H](C)Oc3ccc(NC(=O)C4CCCCC4)cc3C(=O)N([C@@H](C)CO)C[C@H]2C)cc1,inactive: 1.01
